Results as given in the supplement of paper PMC11417369.
The other results are listed elsewhere or left out.

System: PfAP2-HC AP2 domain (GST-tagged)
Assay: gcPBM binding intensity (ln(normalized median fluorescence intensity)); higher = stronger DNA binding
Method in brief: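 An Agilent 4 × 180k array of primer-extended double-stranded 36-bp intergenic genomic probes, with negative controls, was incubated for 1 h with GST-tagged P. falciparum DNA-binding domains expressed in E. coli. Alexa488 anti-GST antibody detected bound protein, scanned at 488 nm. Binding intensity is the highest Masliner-normalised natural-log median intensity across replicate spots of either probe orientation.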

Sequence	gcPBM binding intensity (ln)
AATAAATAAAAATGCACACAGTTAACATGTTGAATT [CACACA_site4795]	10.2
TTTTGTACATCTTTTGCACACGTAATGTTATTATAA [CACACA_site1259]	9.94
TTTAAAGTTTTATACACACACCAAAGTTATTCTAAT [CACACA_site6432]	9.9
CAATGAAAAATAATGAGTACATAGTTAATAAAGATA [XGTACX_site72]	9.71
ATAATTAAAATTAAATGTACTTTTTTATATATTTTT [XGTACX_site2209]	9.61
AATTTCTTTTTCGATATACACACTGTATGTGTCTAA [CACACA_site3975]	10.2
AATGATACACATATATGTACATATATATATATATAT [XGTACX_site5391]	9.9
TGCAATATATCAAAGTGTACATGCAATAAAAAAAAA [XGTACX_site652]	9.65
ATATGGATTATACATACATGCATACATACATACATA [TGCATGCA_site475]	9.64
TATATACATATATGCACACAAAAAAATATATATTTT [CACACA_site1729]	9.9
AAATGTAGAAAAAGTTGTACACTGTTTCAAAAATAA [XGTACX_site1063]	9.64
AAAATTTAATATAATGCACACATAAAACAAAAACAA [CACACA_site8071]	10.1
TTATAATATATATAAAAGAAAAAAAATTATAATATA [CACACA_negctrl_site90]	9.36
TTATTTTTCTTTATTGGTACACACGAAAAAAAAATT [XGTACX_site6482]	9.52
GCCCACACGAACCATGCATGCCACGATATAAACCAC [TGCATGCA_site322]	9.9
TTTTTTACAGAAAAATATTAAAATTATAAATGTGAA [GTGCAC_negctrl_site451]	9.28
TAATATATATATATGGTGCATTTAATTTATATATAA	9.49
TATGAAATTTTAATTACACACAGGAAAATAAAATGT [CACACA_site8430]	9.93
AAGAAGTGGAAAATATACTCCACATATATATATGTG [CACACA_negctrl_site304]	9.67

Sequence	gcPBM binding intensity (ln)
AAAAAACAATTTGTGTGTACACATGATACGTTCGAT [XGTACX_site4112]	10.1
ATATATATTTTTAATTGTACAGAATTAAAAATATTG [XGTACX_site1967]	9.43
CTTTAACCATATATGTGTACGTATTTTATTCATATT [XGTACX_site6212]	9.99
AAAAAAAAAAAAAGCTGTACAATTAAAGACAAACCT [XGTACX_site8610]	9.78
GGAAAAATATAATATGCATGTTATTATTTTTTTATA [TGCATGCA_site836]	9.54
TTTTTATTTATTCTCTTTGTATTATAAAATAAAAGC [XGTACX_negctrl_site253]	9.2
ATATATATATAATGTTGTACATAAATATTATATTTA [XGTACX_site5225]	9.38
ACATGTGAATTTTAGGTGCACTTGTAATTTAACATT	9.83
ATATATATATTATATAGTACAGAGTATACTATTATA [XGTACX_site1893]	9.71
CAAAAAGGAATGTATGCACACAATTGATTTTAACTC [CACACA_site1468]	10.2
AACGATATATGTACTACACACATTATGTCATCCTAT [CACACA_site2464]	10.2
GATCTAAAAACAAGGTGTACAAGAAAAAAAAAAAAA [XGTACX_site7577]	9.58
ACAAAAGGGGAATACACACACATATATATATATATA [CACACA_site2215]	10.1
TATGTATATACATAAACATGCAAAAACAATATCTTA [TGCATGCA_site950]	9.66
TATTTATTTATTTAATGTACAAAAGAACAAGAATTT [XGTACX_site2248]	9.14
TTCTTCTGTTTTATTACACACCATTTTGTGTATACA [CACACA_site7059]	10
TCTTAATCGTATTATTACTATAATTATATAATATTT [CACACA_negctrl_site1594]	9.68
TTCTTTTATGATAATTGTACCCTTTTTAAAAAGAAA [XGTACX_site7815]	9.26
ATAATGAAAAGAAAGGGTACAAAAAAAAAAAAAAAT [XGTACX_site3350]	10.1

Sequence	gcPBM binding intensity (ln)
AACTGATTATTTTTTTGTACATATATAATAATATAT [XGTACX_site5953]	9.78
CATAAATAATATATTTGTACGAATAAAATTTGTTCA [XGTACX_site3445]	9.48
TAAAACAATATAAAATGTACAGAATTTTTTTTTCTT [XGTACX_site6820]	9.52
TTTTTTTTCAATGGCACACATTTTAGATTTATGCTT [CACACA_site4735]	9.77
ATAAAATATCAATACCGTACACAAGCAGGTAAAATA [XGTACX_site3719]	9.92
CTTTTTTGTAATAACACACACACAAACAGAAAAAAT [CACACA_site2075]	10.1
ATTAATATTTAGACTTGTACATATATAATATATGTC [XGTACX_site3766]	9.6
AAGAAAAAGATGCGCATACACACAGATGAATAACAA [CACACA_site1627]	10.2
TTTCTTTTTTAAATTAAAATTTTTTTTTTTTTCGGT [TGCATGCA_negctrl_site52]	9.36
TTATTTCAAAGTTGTTGTACAAAAATATATTTATAA [XGTACX_site5226]	9.65
AAAAAAATAATGTACACACACATATATGTTTATATA [CACACA_site6234]	10.1
AATTAAAAAGTTTTTAATGTTTTTAATTTTTTCCAC [XGTACX_negctrl_site423]	9.4
AAAGGTGTATTTAATACACACGTGTCATTAAAATTG [CACACA_site4508]	9.71
TATATAAATTATGTGAGTACATAATTTAGAAGGAAC [XGTACX_site2807]	9.9
AATATAAATATAAATTGTACTTAAAAATTTCACGCA [XGTACX_site5234]	9.58
TTAAAAAACTATAATACACACCAAAAATATGCACAT [CACACA_site7079]	10.2
TCCTTTTGAACCCTTTTTCTCACAAGACCTTTATAT [TGCATGCA_negctrl_site413]	9.64
TTTCGTTGTGTATTTTGTACATATTTTTAATTATAT [XGTACX_site6687]	9.91
TTTTTTTTTTATTCTTCACACATTTCCAATAAAAAA [CACACA_site5601]	9.53
